The full ranking holds about 33,000 sequences; the median of “E-score (-0.5 to 0.5)” is about -0.016, and the highest 2% start at about 0.32. This is one part of the list.
The sequences below were run against T1, Stp1 (UniProt B3LFK1) (assay: PBM E-score (8-mer binding enrichment) (E-score (-0.5 to 0.5)); higher = stronger / more preferred TF binding; most listed sequences are background and not binding sites). Conditions: protein concentration: 200 nM; construct: GST-full length.
T1 sequence: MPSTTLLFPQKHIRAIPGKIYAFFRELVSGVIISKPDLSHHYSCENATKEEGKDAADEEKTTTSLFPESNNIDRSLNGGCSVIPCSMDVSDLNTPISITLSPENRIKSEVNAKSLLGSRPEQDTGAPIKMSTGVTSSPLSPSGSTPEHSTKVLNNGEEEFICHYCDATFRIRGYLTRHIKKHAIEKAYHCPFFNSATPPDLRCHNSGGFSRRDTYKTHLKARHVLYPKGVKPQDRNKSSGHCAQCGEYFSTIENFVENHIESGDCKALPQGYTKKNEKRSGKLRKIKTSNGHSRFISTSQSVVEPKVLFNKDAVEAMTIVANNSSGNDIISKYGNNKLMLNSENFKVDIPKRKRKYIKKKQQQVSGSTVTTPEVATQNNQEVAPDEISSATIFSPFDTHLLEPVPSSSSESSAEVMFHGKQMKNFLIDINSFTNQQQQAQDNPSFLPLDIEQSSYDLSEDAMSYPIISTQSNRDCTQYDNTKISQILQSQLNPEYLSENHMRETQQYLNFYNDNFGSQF
Method in brief: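 Masliner-normalised scans of fluorescent anti-GST signal were the basis for scoring. That signal came from GST-tagged yeast transcription factors applied at about 100-200 nM to double-stranded universal all-10-mer Agilent arrays on fresh or once-stripped slides. Each ungapped eight-base word, pooled with its reverse complement, received an E-score from the Universal PBM Analysis Suite.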

| Sequence | PBM E-score |
| --- | --- |
| AGACACAC | -0.0769 |
| ATAGCATG | -0.16 |
| GGATAAAA | 0.137 |
| CCACAAGA | -0.122 |
| CACGACAC | 0.117 |
| CCGGCGGC | 0.152 |
| ATCGTATG | 0.195 |
| CTATAAAA | 0.0322 |
| TAGACCGA | -0.165 |
| CCTCATTC | -0.0483 |
| ATGCGTCA | -0.00827 |
| GCCTAATA | 0.0922 |
| GCGACAAC | 0.172 |
| AAGTAACC | -0.0573 |
| GTACTCCA | -0.0272 |
| GAATTCTA | 0.236 |
| GAAGTTCC | -0.141 |
| CCAACGAA | 0.0401 |
| CTGAACCC | -0.0278 |
| GCTAAGCC | 0.03 |
| GTGCCATA | 0.175 |
| GATGATGC | 0.115 |
| TAACGCAA | 0.189 |
| CCGCGTAG | 0.25 |
| CCGTCCAG | 0.0807 |

| Sequence | PBM E-score |
| --- | --- |
| GATCCCCC | -0.411 |
| GGAACCAA | -0.0547 |
| AAGAGTGG | -0.267 |
| ACACAGGC | -0.0347 |
| GAACGTTA | 0.0285 |
| GGATACTA | -0.0281 |
| ACGTCTAA | 0.162 |
| CCTTTTCG | 0.146 |
| CCGTTCAG | 0.271 |
| AGTTGCCG | 0.288 |
| CTTAGGCC | -0.0964 |
| ATCTAAAG | -0.0363 |
| AATTATTA | 0.111 |
| CTCCCCAA | -0.229 |
| GTTCCCAA | -0.113 |
| CCGATATA | 0.0401 |
| CTCCTCAA | -0.139 |
| CGCTAGCC | -0.19 |
| CACGGTAA | 0.139 |
| GCGCATAC | 0.0533 |
| GGTCTAGA | -0.153 |
| CATTACGG | 0.0818 |
| GCGCAACC | -0.0997 |
| CGCAACAC | 0.107 |
| CTCGACAC | 0.0218 |

| Sequence | PBM E-score |
| --- | --- |
| CTAGGGAA | -0.0313 |
| CTATTGGA | 0.0629 |
| ATAATATC | 0.203 |
| GACTTTGA | -0.0498 |
| CCCAGTGA | -0.0839 |
| AAGTCGGG | -0.235 |
| CTGTATTA | 0.103 |
| AGTCTCAT | -0.157 |
| CACATGTA | 0.127 |
| CCCAGTTA | -0.23 |
| ACCGCCCG | -0.195 |
| CGTTGGTA | 0.0734 |
| TATTAGCA | 0.0213 |
| CTGATTAC | 0.0824 |
| GGATAGTA | 0.0402 |
| GTCACCGA | 0.0238 |
| CCGTAGGC | 0.144 |
| GACAGCCC | -0.143 |
| ACATGCAC | 0.0354 |
| CCATCTGC | -0.055 |
| AACCAGAC | -0.174 |
| GTGGTGCA | -0.157 |
| GCCGATCC | 0.0492 |
| GCCAAATA | 0.109 |
| GAGATGAC | -0.282 |

| Sequence | PBM E-score |
| --- | --- |
| GGTCGATA | -0.144 |
| CGACTCCA | -0.331 |
| CGGACATA | 0.131 |
| ATACGGCC | 0.406 |
| CCCCATCG | -0.0472 |
| CGCAATAC | 0.158 |
| GAGCATCC | -0.254 |
| AAACGCAA | 0.152 |
| GTGCTCGA | -0.0498 |
| GTGTGGTA | -0.0047 |
| AGTGCAAC | -0.0282 |
| AGTCTTAT | -0.0786 |
| AGTTTACG | -0.0251 |
| GTTGGTTA | 0.0838 |
| CCTAGCAG | -0.16 |
| CTACGCAA | -0.0558 |
| AGGATAAC | -0.132 |
| ATCGATAC | 0.208 |
| AGGCCATA | -0.042 |
| ACTTAGTG | -0.00783 |
| AACTATGA | 0.0832 |
| GAACGTCC | -0.0916 |
| TAGAAAAA | 0.0466 |
| ATGGTAAC | 0.166 |
| CCATCGAC | -0.175 |

| Sequence | PBM E-score |
| --- | --- |
| AGCCACGA | -0.106 |
| AGTGATGG | -0.223 |
| CACCTGGG | -0.179 |
| GATCGCAA | 0.0331 |
| CAACGGCA | 0.402 |
| GGCAGTTA | 0.0772 |
| GGGAAATA | 0.0153 |
| CTATCTGC | -0.265 |
| CCCGCAGC | -0.123 |
| GCCACGTA | 0.156 |
| CAGCTACG | -0.14 |
| GACAGATA | 0.0745 |
| GTCATTAA | 0.0542 |
| AAATGAAC | 0.00278 |
| CATGCTTC | -0.0116 |
| CGCGGTCC | 0.0444 |
| CCGAGATA | 0.0387 |
| CGAGCAAA | 0.0686 |
| AAACCGCG | 0.256 |
| CGCTTCGA | 0.00998 |
| CAGACGAA | 0.269 |
| GGCCAGAA | 0.00154 |
| ACAACAAA | 0.215 |
| CCTCGGCA | 0.282 |
| CTCTGGAA | -0.066 |

| Sequence | PBM E-score |
| --- | --- |
| TCCCGGGA | -0.0864 |
| ACTACTTA | -0.0788 |
| AGTTCATA | 0.0982 |
| CTTGCTTC | -0.0155 |
| CGACGGAA | -0.0215 |
| GCGAGGAC | -0.153 |
| GTCACAAC | 0.0595 |
| ATAGGGAT | 0.0389 |
| CACTGGAC | -0.105 |
| GCGCCTGA | 0.16 |
| AAGCACCG | -0.105 |
| GACGGTCA | -0.266 |
| GGTCTCGA | -0.0339 |
| ACCGAGGC | -0.121 |
| GGCAGCGA | 0.118 |
| GGGATACA | -0.316 |
| ATGGAAAT | 0.0295 |
| AACGCGCG | 0.232 |
| CTCCGGAC | -0.0608 |
| CCACACAC | 0.135 |
| CCCCTAGA | -0.293 |
| AGAAATCA | 0.207 |
| CGATGCAA | -0.034 |
| CCGACCGG | -0.261 |
| ATGACATA | -0.00518 |

| Sequence | PBM E-score |
| --- | --- |
| CATAGGTA | -0.0698 |
| ACAGCCCA | -0.0809 |
| ATTTGAGC | 0.0657 |
| ATCGCTCA | -0.154 |
| ATTCGATG | -0.0786 |
| GTAGCGTA | -0.163 |
| ACGTTGAT | 0.12 |
| CTGGCGGC | 0.0639 |
| CAAGACGA | -0.0928 |
| AGTGTGCA | 0.0562 |
| AAAAACAC | 0.128 |
| ACCTGACC | -0.197 |
| GACCCCAC | -0.0294 |
| CAGTGCAC | -0.134 |
| CTCTTATA | 0.175 |
| AATTATCT | 0.0629 |
| AGATGCAG | -0.0728 |
| GAGAACCC | -0.358 |
| ATACTTTG | 0.0376 |
| GGTCGTGA | -0.188 |
| TCAATGGA | -0.0121 |
| AGCACAAC | -0.0252 |
| CTGGTTTC | 0.0592 |
| ACCGAACT | -0.0382 |
| AAGAACAC | 0.0921 |

| Sequence | PBM E-score |
| --- | --- |
| AAGGCTGA | -0.0513 |
| AAATTGTG | -0.163 |
| AAGACTCG | -0.0483 |
| CAAGACCC | -0.272 |
| CAGCGCAG | -0.0181 |
| CACGCTGA | -0.0008 |
| GAAGGTAC | -0.11 |
| AGGTCGTG | -0.143 |
| ACTTCATC | -0.0261 |
| TCCCCAAA | -0.0405 |
| CTGATCGA | -0.228 |
| AATACAGC | 0.0392 |
| CGATTGTC | -0.00563 |
| CAAAAGCC | 0.121 |
| CCAGTGAA | -0.0703 |
| GACGCCTA | 0.0445 |
| CCGCGGCG | 0.435 |
| ATCCCTCG | -0.184 |
| GTGGCCCA | -0.123 |
| AGGTAATA | 0.176 |
| AGGCCACA | -0.0702 |
| CAATGATA | 0.144 |
| AAAGCCTT | 0.0465 |
| CTGCATAA | -0.0376 |
| ATTCTTCG | 0.00242 |

| Sequence | PBM E-score |
| --- | --- |
| GTTTGGTA | 0.189 |
| CCTCACAG | -0.0104 |
| GAGGCCAC | -0.0944 |
| CGTGATAA | 0.186 |
| AGTTCACC | 0.108 |
| ATTATGAA | 0.232 |
| AGTCGCAT | -0.183 |
| GCTCAAAC | 0.165 |
| GCGAGCAC | -0.208 |
| ACTTCTTG | -0.0889 |
| AATCTCAG | -0.205 |
| GCTTCACA | -0.0515 |
| CGCTAGTA | 0.0319 |
| CTGGTGGC | -0.14 |
| GATTGGGA | -0.222 |
| CTCATACC | 0.103 |
| GATGTCGC | -0.0594 |
| ATAAAATA | 0.168 |
| CCGCCCCG | 0.273 |

Reference: the supplement of paper PMC3334620
